{
  "source": "the supplement of paper PMC11417369",
  "note": "The list shows a part of the results.",
  "data": [
    {"system": "PfSIP2 AP2 domain 1 (GST-tagged)", "assay": "gcPBM binding intensity (ln(normalized median fluorescence intensity)); higher = stronger DNA binding", "method_in_brief": "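Probes on an Agilent 4 × 180k array were primer-extended, double-stranded and 36 bp long, taken from intergenic genomic regions, with negative controls added. GST-tagged P. falciparum DNA-binding domains from E. coli, about 25 μg on average, were applied to the array for 1 h in 1× PBS containing 1% milk, 0.2 mg/ml BSA, 0.5% salmon testes DNA and 0.03% Triton X-100. Binding intensity, obtained after Alexa488 anti-GST antibody detection and a 488 nm scan, is the highest Masliner-normalised natural-log median intensity across replicate spots of either probe orientation.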", "values": [
      {"sequence": "TAAGATAAAAAAAATGCATGTTCTTATAATATTGTC [TGCATGCA_site939]", "gcPBM binding intensity (ln)": 6.99},
      {"sequence": "ATTAGTTTACACATATGTACATATATTACAACAAAA [XGTACX_site275]", "gcPBM binding intensity (ln)": 7.34},
      {"sequence": "GGTGATATAATATATACATGCACATATATATTATTA [TGCATGCA_site970]", "gcPBM binding intensity (ln)": 9.65},
      {"sequence": "TATGGAAATATATATTGTACGTATGACCTTTAAAAA [XGTACX_site3935]", "gcPBM binding intensity (ln)": 7.04},
      {"sequence": "TTACAAAAAAATAATTGTACATACAATTTCTGTTAT [XGTACX_site877]", "gcPBM binding intensity (ln)": 6.99},
      {"sequence": "TTTATATGTATGAAGTGTACACATATATTGTATTTT [XGTACX_site5731]", "gcPBM binding intensity (ln)": 7.24},
      {"sequence": "ACACATTATAAAACTGTCGCTCATAAAGAAGAATGA [CACACA_negctrl_site999]", "gcPBM binding intensity (ln)": 6.93},
      {"sequence": "GCAACAAAAAATCAGACATGCATTTTAAAATGAATA [TGCATGCA_site846]", "gcPBM binding intensity (ln)": 6.81},
      {"sequence": "CATATTGAATATTTAACACACATTTCGCTTAATTCA [CACACA_site2086]", "gcPBM binding intensity (ln)": 6.79},
      {"sequence": "TATAAAAAAAAAATTTGTACATAATAATATATATAT [XGTACX_site2074]", "gcPBM binding intensity (ln)": 8.4},
      {"sequence": "TTATATATAAAATACTGTACATTTAATTGATGGTTT [XGTACX_site2073]", "gcPBM binding intensity (ln)": 6.95},
      {"sequence": "GAATGAATTGTTATTAGTACACATGTGAATTATAAA [XGTACX_site6790]", "gcPBM binding intensity (ln)": 7.1},
      {"sequence": "AAAAAGCAGGATTATACACACAAATATATATATGTT [CACACA_site1077]", "gcPBM binding intensity (ln)": 6.91},
      {"sequence": "TATATAAATTTAATAACACACATATAAAAATGAATT [CACACA_site2366]", "gcPBM binding intensity (ln)": 6.95},
      {"sequence": "ATTTTTTTTTTTTTTATTCCCCTTTCGAAAAAAACC [CACACA_negctrl_site1139]", "gcPBM binding intensity (ln)": 7.18},
      {"sequence": "ATATATATATAACATTGTACACACAAAGAAATAATA [XGTACX_site6440]", "gcPBM binding intensity (ln)": 8.63},
      {"sequence": "ATATGTTTACGTAAATGTACACGTCAGTATATTTCT [XGTACX_site8199]", "gcPBM binding intensity (ln)": 7.01},
      {"sequence": "TTTTATAATAAGTATGTAAAAATTATATATATATAT [CACACA_negctrl_site711]", "gcPBM binding intensity (ln)": 9.1},
      {"sequence": "AACTTGTATATATACACACACACACTATCTTTTTTT [CACACA_site8601]", "gcPBM binding intensity (ln)": 7.08},
      {"sequence": "CTTTTATATGTCTAATGTACGGGCAATATAAATTTG [XGTACX_site8323]", "gcPBM binding intensity (ln)": 7},
      {"sequence": "TTTTTCACATTTCAGTGTACATTTTAATCATATATA [XGTACX_site915]", "gcPBM binding intensity (ln)": 7.01},
      {"sequence": "CGACAAAAATTTTACAGTACAGTATAAACCTTTTTA [XGTACX_site290]", "gcPBM binding intensity (ln)": 7.06},
      {"sequence": "TATTTTTTTAAGTGCAGTACACTTAATTTCCCCCAA [XGTACX_site7328]", "gcPBM binding intensity (ln)": 7.99},
      {"sequence": "ATTTTTTTTTTTTTTTTAAGACAAACTCTTAATTTA [CACACA_negctrl_site1389]", "gcPBM binding intensity (ln)": 6.78}
    ]}
  ]
}
